Data from PubChem BioAssay AID463173 (ICCB-Longwood Screening Facility, Harvard Medical School, 2010).
The campaign covered roughly 52,000 compounds. About 4,300 (8.3%) were called active. Rule as the data show it: active = survival mostly below about 52% (no sharp cut-off); inactive = mostly above about 56%. This is one part of the list.

What follows are compounds tested on DeltatarO mutant (assay: growth inhibition of S. aureus wild type versus tarO mutant, primary screen, teichoic acid synthesis inhibitors, RN4220, OD600 (AID 463173)). Conditions: OD600, 18 h, hits give low values, screened at 18.75 µg/mL (by protocol).
For `COc1ccc(Nc2c(-c3ccccn3)nc3ccc(Cl)cn23)cc1`, the survival was inactive: 93%.
For `CCc1ccc(-n2c(=O)c3cccnc3n2CC(=O)NCc2ccc(C)cc2)cc1`, the survival was inactive: 80%.
With `Cc1ccc(NC(=O)C2=CC(c3ccc4c(c3)OCO4)=NS(=O)(=O)N2C)cc1` the survival was inactive: 75%.
For `Cc1ccc(NC(=O)Cn2c(=O)n(Cc3nc(-c4ccccc4)no3)c(=O)c3cc4c(cc32)OCO4)c(C)c1`, the survival was inactive: 62%.
With `c1ccc2c3c(cc(N4CCOCC4)c2c1)OC1(N2CCOCC2)CCCCC1O3` (stereo not drawn) the survival was inactive: 82%.
`Cc1nc(Nc2ccc(S(=O)(=O)N3CCCC3)cc2)c2nnn(Cc3ccccc3)c2n1` was tested, and the survival was inactive: 96%.
With `COc1ccccc1N1CCN(CC(O)COc2ccc(C)cc2C(C)(C)C)CC1` (stereo not drawn) the survival was active: 1%.
With `CC1=C(C)CC2C(=O)N(Cc3ccccc3)C(=O)C2C1` (stereo not drawn) the survival was inactive: 95%.
`CCCCN(C)C(=O)Cn1c(SCC(=O)Nc2ccc(C)c(C)c2)nc2ccccc21` was tested, and the survival was inactive: 55%.
With `CCOC(=O)C1(C)C=C(Nc2ccc(C(=O)O)cc2)C(=O)N1c1ccc(C(=O)O)cc1` (stereo not drawn) the survival was inactive: 147%.
With `Cc1nc2ccccc2n1CCc1nc2c3ccccc3nc(SCc3ccc(F)cc3)n2n1` the survival was inactive: 90%.
In the case of `Cc1cccc(Nc2c3c(nc4nncn24)CCC3)c1C`, the survival is reported as inactive: 82%.
With `COc1ccc2c(c1)c1c(c(=O)n(-c3ccccc3C)c(=O)n1Cc1c(F)cccc1Cl)n2C` the survival was inactive: 82%.
`Cc1ccc(CCNC(=O)c2ccc(CS(=O)(=O)Cc3ccccc3F)o2)cc1` was tested, and the survival was inactive: 72%.
`CCOc1ccccc1NC(=O)CN1C=NS(=O)(=O)c2ccccc21` was tested, and the survival was inactive: 72%.
With `Cc1ccc(NC(=O)CCNS(=O)(=O)c2ccc3c(c2)CCCC(=O)N3)cc1` the survival was inactive: 77%.
With `COc1cccc2cc(-c3nc(-c4ccc(C)cc4)c(C)s3)c(=O)oc12` the survival was active: 46%.
`O=c1cc(CSc2nnc(Cn3nnc4ccccc43)o2)c2ccccc2[nH]1` was tested, and the survival was inactive: 81%.
`Cc1ccc(C(=O)Nc2ccc3nc(N4CCCCC4)cc(C)c3c2)cc1F` was tested, and the survival was inactive: 55%.
`CC(=O)c1ccc(N2C(=O)N(Cc3cc(C)ccc3C)c3ccccc3S2(=O)=O)cc1` was tested, and the survival was inactive: 85%.
In the case of `O=S(=O)(Nc1ccc(Cl)cc1)c1cccc(S(=O)(=O)c2ccc(Cl)c(Cl)c2)c1`, the survival is reported as active: 37%.
For `Cc1cc(Nc2ccc(F)cc2)nc(-n2nc(C)cc2C)n1`, the survival was inactive: 70%.
For `Cc1ccc(C)c(N2CCN(CCCNC(=O)Nc3ccc(Cl)cc3)CC2)c1`, the survival was active: -5%.
In the case of `CCOC(=O)C1CCCN(C(=O)Cn2nc(CC)n3c(cc4occc43)c2=O)C1` (stereo not drawn), the survival is reported as inactive: 88%.
In the case of `CCOC(=O)/C(C#N)=N\Nc1ccccc1OC`, the survival is reported as inactive: 64%.
With `Cc1ccc(CCNC(=O)c2ccc(NC(=O)N3CCSc4ccccc43)cc2)cc1` the survival was inactive: 63%.
With `COc1ccc(N2CCN(c3cc(C)nc4nncn34)CC2)cc1` the survival was inactive: 65%.
With `CCOc1ccc2c(c1)c(=O)c(C(=O)c1ccc(CC)cc1)cn2CC(=O)Nc1ccccc1C` the survival was inactive: 70%.
For `Cc1ccc(C)c(N2CCN(c3nc4c(S(=O)(=O)c5ccccc5)nnn4c4ccc(Cl)cc34)CC2)c1`, the survival was inactive: 105%.
`CCC(C)NC(=O)Cn1c(=O)ccc2cc(S(=O)(=O)N3CCCC3)ccc21` (stereo not drawn) was tested, and the survival was active: 37%.
For `CCCN(C(=O)c1cc2c(=O)oc3ccccc3c2s1)c1ccccc1C`, the survival was inactive: 54%.
In the case of `Cc1ccc(NC(=O)Cn2nnc(C(=O)NCCc3ccccc3)c2N)cc1Cl`, the survival is reported as inactive: 105%.
For `COCC(=O)N1c2nc(-c3ccco3)nn2C2(CCCCC2)[C@@H]2CCCC[C@@H]21`, the survival was inactive: 58%.
For `CCc1cccc(C)c1NC(=O)CCn1nc(C)c2c(C)n(-c3ccccc3)nc2c1=O`, the survival was inactive: 69%.
In the case of `CC1=C(C(=O)Nc2cccc(C(F)(F)F)c2)C(c2ccccc2)n2ncnc2N1` (stereo not drawn), the survival is reported as inactive: 103%.
In the case of `COc1ccc(NC(=O)Cc2noc3ccc(C)cc23)cc1Cl`, the survival is reported as active: 56%.
With `O=C(c1ccc2c(Cl)c3c(nc2c1)CCCC3)N1CCN(c2ccccc2F)CC1` the survival was active: -3%.
In the case of `O=C(Nc1nnc(SCc2cc(=O)n3cc(Cl)ccc3n2)s1)c1cccc(F)c1`, the survival is reported as inactive: 83%.
With `COc1cccc(C2=CC(c3ccccc3F)n3c(nc4ccccc43)N2)c1` (stereo not drawn) the survival was inactive: 83%.
`COc1ccc(N2CC(NC(=O)c3c(F)cccc3Cl)CC2=O)cc1OC` (stereo not drawn) was tested, and the survival was inactive: 95%.
`Cc1ccccc1NC(=O)c1cnc2sc(N3CCCC3)nn2c1=O` was tested, and the survival was inactive: 95%.
In the case of `CCC(C(=O)N1CCN(c2ccccc2)CC1)n1nc(C)c2sc3ccccc3c2c1=O` (stereo not drawn), the survival is reported as inactive: 62%.
With `CCOc1ccc(N2CC(c3nc4ccccc4n3CCOc3ccc(CC)cc3)CC2=O)cc1` (stereo not drawn) the survival was active: 55%.
With `Cc1ccc(N2C(=O)SC(Nc3ccccc3)C2=O)cc1` (stereo not drawn) the survival was inactive: 83%.
For `CCOc1cc(CNC(=O)c2ccc3nc(CCc4ccccc4)oc3c2)ccc1OC`, the survival was inactive: 70%.
`O=C(CSc1nc2ccsc2c(=O)n1Cc1ccccc1Cl)NCc1ccc(Cl)cc1` was tested, and the survival was inactive: 101%.
In the case of `O=C(CSc1nc2ccccc2n1Cc1c(F)cccc1Cl)N1CCN(c2ccc(F)cc2)CC1`, the survival is reported as inactive: 50%.
With `COc1ccc(NC(=O)CN2C(=O)C3(SCC(=O)N3c3cccc(OC)c3)c3ccccc32)cc1` (stereo not drawn) the survival was inactive: 89%.
For `Cc1ccc(CNC(=O)C(C)n2ccc3cc(S(=O)(=O)N4CCCC4)ccc32)cc1` (stereo not drawn), the survival was inactive: 102%.
For `Cc1ccc2c(=O)c(C(=O)c3ccc(F)cc3)cn(CC(=O)NCCc3ccccc3)c2n1`, the survival was inactive: 116%.
`CCOc1ccc(C(=O)Nc2ccc3oc(-c4cccnc4)nc3c2)cc1` was tested, and the survival was inactive: 77%.
For `COc1ccc(CN(Cc2ccco2)c2cnc(S(C)(=O)=O)nc2C(=O)Nc2ccc(C)cc2C)cc1`, the survival was inactive: 48%.
With `Cc1c(C(=O)NCc2ccccc2Cl)sc2nc[nH]c(=O)c12` the survival was inactive: 89%.
With `Cc1ccc(C)c(CN2C(=O)c3ccccc3S(=O)(=O)c3ccc(C(=O)NCc4ccccc4)cc32)c1` the survival was inactive: 75%.
`Cc1cccc(OCCCn2c(CCNC(=O)C(C)(C)C)nc3ccccc32)c1` was tested, and the survival was inactive: 77%.
In the case of `CCCN1CCc2nc(N3CCN(c4ncccn4)CC3)ncc2C1`, the survival is reported as inactive: 75%.
`Cc1cccc(OCCSc2nc3ccc(NC(=O)COc4ccccc4)cc3s2)c1` was tested, and the survival was inactive: 78%.
`CCn1cc2nc(SCc3cc(C)ccc3C)n(Cc3ccc(OC)cc3)c(=O)c2n1` was tested, and the survival was inactive: 74%.
With `CCc1ccc(N(C)S(=O)(=O)c2ccc3[nH]cc(C(=O)NCC4CCCO4)c(=O)c3c2)cc1` (stereo not drawn) the survival was inactive: 67%.
In the case of `N#Cc1ccccc1NC(=O)c1cnc(N2CCOCC2)c2ccccc12`, the survival is reported as inactive: 89%.
For `CC(=O)N1CCOc2cc(S(=O)(=O)N(C)Cc3ccccc3)c(Cl)cc21`, the survival was inactive: 89%.
With `CCC(=O)N1CCc2cc(Br)cc(S(=O)(=O)CCC(=O)NCc3ccc(F)cc3)c21` the survival was inactive: 80%.
In the case of `COc1ccccc1-c1nnc(C2CCN(C(=O)c3ccc(Cl)cc3)CC2)o1`, the survival is reported as inactive: 80%.
`COc1cccc2c1Oc1ncccc1N(C(=O)CCC(=O)NCc1ccc(C)cc1)C2` was tested, and the survival was inactive: 81%.
For `Cc1csc2nc(COC(=O)CNC(=O)c3ccccc3Cl)cc(=O)n12`, the survival was inactive: 95%.
In the case of `COC(=O)CCCCC1SCC(NC(=O)c2ccccc2)C1OC(C)=O` (stereo not drawn), the survival is reported as inactive: 95%.
For `O=C(Nc1c(C(=O)N2CCN(c3ccccc3F)CC2)oc2ccccc12)c1ccccc1F`, the survival was inactive: 75%.
With `Cc1ccc(-n2nc3c(=O)n(CCCC(=O)NCc4ccccc4F)nc(C)c3c2C)cc1` the survival was inactive: 67%.
In the case of `CN1CCN(CCCNC(=O)c2ccc3nc(Cc4ccccc4)oc3c2)CC1`, the survival is reported as inactive: 91%.
With `O=C(CN1CCCN(Cc2ccc(F)cc2)S1(=O)=O)NCc1ccccc1Cl` the survival was inactive: 88%.
With `CCn1cc(C(=O)NCc2ccc(C)cc2)c(=O)c2cc(S(=O)(=O)N3CCc4ccccc4C3)ccc21` the survival was inactive: 67%.
For `CCC12CN3CC(CC)(CN(C1)C3c1cc(Br)ccc1OC)C2=O` (stereo not drawn), the survival was inactive: 88%.
With `Cc1nc(-c2ccc(S(=O)(=O)N3CCN(c4ccc(F)cc4)CC3)cc2)co1` the survival was inactive: 89%.
With `CC(=O)N1CCCc2cc(S(=O)(=O)Nc3ccc(C)c(F)c3)ccc21` the survival was inactive: 83%.
With `CCOc1ccc(NC(=O)CN2C(=O)C3(SCC(=O)N3c3ccc(F)cc3)c3ccccc32)cc1` (stereo not drawn) the survival was inactive: 96%.
`COc1ccc(C2C(=O)N(C3CCC(C)CC3)CC(=O)N2CCC2=CCCCC2)cc1OC` (stereo not drawn) was tested, and the survival was active: -1%.
For `COc1ccc(CNc2oc(-c3ccc(COc4ccc(OC)cc4)o3)nc2C#N)cc1`, the survival was inactive: 101%.
In the case of `Cn1nnnc1SCCCNCc1cccc(OCc2ccccc2Cl)c1`, the survival is reported as inactive: 60%.
In the case of `CCOc1ccccc1NC(=O)Cn1c2ncccc2c(=O)n1-c1ccc(C)c(C)c1`, the survival is reported as inactive: 85%.
With `CCc1ccc2nc(N3CCN(C(=O)C4CC4)CC3)sc2c1` the survival was inactive: 94%.
In the case of `CCN1C(=O)C(Cc2nc3ccccc3c(=O)n2-c2ccccc2)c2cc(Br)ccc21` (stereo not drawn), the survival is reported as inactive: 60%.
For `Cc1oc(-c2ccc(C(=O)Nc3ccccc3F)cc2)nc1COc1ccccc1`, the survival was inactive: 94%.
For `COc1ccc(C)cc1NC(=O)CSc1nc(=O)n(Cc2ccccn2)c2c1CCC2`, the survival was inactive: 125%.
With `O=C1c2ccccc2C(=O)N1CSC1=NCCS1` the survival was inactive: 81%.
In the case of `CCc1nn(CC(=O)N2CCN(c3cccc(C(F)(F)F)c3)CC2)c(=O)c2cccn12`, the survival is reported as inactive: 104%.
For `CCOc1ccc2[nH]c(=O)c(CN(Cc3ccccc3)C(=O)N3CCOCC3)cc2c1`, the survival was inactive: 105%.
For `CC(=O)N1CCc2cc(S(=O)(=O)NC(Cc3ccccc3)C(=O)Nc3ccc(Cl)cc3)ccc21` (stereo not drawn), the survival was inactive: 72%.
In the case of `Cc1cc(C)c(OCC(=O)N(Cc2cccc(F)c2)Cc2ccco2)c(C)c1`, the survival is reported as inactive: 77%.
